Experimental data: US20140221622A1

Biological target: EGFR on U87MG.de2-7 cells (UniProt P00533)
Assay: flow cytometry on U87MG.de2-7 cells, Alexa Fluor 488 anti-human IgG Fc

EC50: 15 nM
B1: DB001 Fab-body (bispecific antibody, human IgG1, kappa)
light: DIQMTQSPSSMSVSVGDRVTITCHSSQDINSNIGWLQQKPGKSFKGLIYHGTNLDDGVPSRFSGSGSGTDYTLTISSLQPEDFATYYCVQYAQFPWTFGGGTKLEIKTVAAPSVFIFPPDAQVTQSPSSLSASVGDRVTITCRSSTGAVTTSNYANWVQEKPGKLFKGLIGGTNKRAPGVPSRFSGSGSGTDATLTISSLQPEDFATYFCALWYSNLWVFGGGTKVEIKRTVAAPSVFIFPPSDEQLKSGTASVVCLLNNFYPREAKVQWKVDNALQSGNSQESVTEQDSKDSTYSLSSTLTLSKADYEKHKVYACEVTHQGLSSPVTKSFNRGECGGSGG[human IgG1 Fc with changes omitted here]
heavy: QVQLQESGPGLVKPSQTLSLTCTVSGYSISSDFAWNWIRQPPGKGLEWMGYISYSGNTRYQPSLKSRITISRDTSKNQFFLKLNSVTAADTATYYCVTAGRGFPYWGQGTLVTVSSASTKGPEVQLVESGGGLVQPGGSLRLSCAASGFTFSTYAMNWVRQAPGKGLEWVGRIRSKYNNYATYYADSVKDRFTISRDDSKNTAYLQMNSLRAEDTAVYYCTRHGNFGNSYVSWFAYWGQGTLVTVSSASTKGPSVFPLAPSSKSTSGGTAALGCLVKDYFPEPVTVSWNSGALTSGVHTFPAVLQSSGLYSLSSVVTVPSSSLGTQTYICNVNHKPSNTKVDKKV[human IgG1 Fc with changes omitted here]
